We go through 44 sequences from the supplement of paper PMC11417369.

This is one part of the list.

This assay has as its system PfSIP2 AP2 domain 1 (GST-tagged). Kind of assay: gcPBM binding intensity (ln(normalized median fluorescence intensity)); higher = stronger DNA binding. Summed up: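 After 1 h on an Agilent 4 × 180k array of primer-extended double-stranded 36-bp intergenic genomic probes and negative controls, bound GST-tagged P. falciparum DNA-binding domains were detected with Alexa488 anti-GST antibody and scanned at 488 nm. The domains had been expressed in E. coli, and binding took place in 1× PBS with 1% milk, 0.2 mg/ml BSA, 0.5% salmon testes DNA and 0.03% Triton X-100. Binding intensity is the highest Masliner-normalised natural-log median intensity across replicate spots of either probe orientation.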
With “TATTTTACATAAAAGAAAAAAAAAAAAAAAAAAAAA [CACACA_negctrl_site1460]”, the “gcPBM binding intensity (ln)” value is 6.85. “TATAAAAAAATAATAAAATAATAAAATATATAAATA [TGCATGCA_negctrl_site394]”: the “gcPBM binding intensity (ln)” value was 6.67.

With “TTTTAAAAGGTAAAATGTACATATATAATATATACA [XGTACX_site1222]”, the “gcPBM binding intensity (ln)” value was found to be 6.73. The same measure for “ATTCTATTATCCTTTGCACACAAAATAAATGAAAAA [CACACA_site3030]”: 7.8; for “CCTTCCTTGAATTTTACATGCAAAAAATTATAAAAC [TGCATGCA_site663]”: 7.2. With “TATATATTATATATTTGTACATATATATAAAAACTT [XGTACX_site449]”, the “gcPBM binding intensity (ln)” value is 7.2.

Consider “TTTTTTCAATATTATATCCAAAAATATTTGTAAATA [TGCATGCA_negctrl_site596]”, for which the “gcPBM binding intensity (ln)” value turned out to be 6.67. Regarding “TTATTAAAATATACATTTGAAAGTAATCTTATTTAA [XGTACX_negctrl_site431]”, the “gcPBM binding intensity (ln)” value is 6.64.

As for “AAAATATGTTAATATTGTACTTAAATAAAAAAAATA [XGTACX_site7152]”, the “gcPBM binding intensity (ln)” value was found to be 6.96.

Take “ATTCTTAAAATAAAATGTACGAAAAAAAAAAAAAAA [XGTACX_site1657]”: the “gcPBM binding intensity (ln)” value is 7.33. With “ATACACATAACATATATATATATATATATATATATC [CACACA_negctrl_site278]”, the “gcPBM binding intensity (ln)” value is 8.08. Consider “TATATATATATAAACGCATGTAATTTATACACACAT [TGCATGCA_site946]”, for which the “gcPBM binding intensity (ln)” value is 9.17. Turning to “ATCTTTCCTTTTGCATGTACATATGGAAATACTTTT [XGTACX_site6995]”, the “gcPBM binding intensity (ln)” value is 7.22. The value for ATAATTAAGTTATGTGTGCACTGTTAAAAATAAATG was 10.4; that for “TTTTATGATATTTACACACAAACGTGAGATAGCTCA [CACACA_site2311]” was 7.01. The value for “AATATAATATCTATAATATAAAAAAAACAAAAAAAA [CACACA_negctrl_site875]” was 6.92; that for “ATATTTTTATATAATGAACACACATATTATATCATT [CACACA_site8446]” was 6.95; that for “TAAAAGGATACATATACACACATATATATATATATA [CACACA_site2791]” was 9.82.

Consider “TTCTTCAACAAAAAAATAAAAATAAAATAATAAAAA [GTGCAC_negctrl_site619]”, for which the “gcPBM binding intensity (ln)” value was 6.81.

On to “TTTAAAAAATTATATTCACACACATACACATATATA [CACACA_site8076]”, for which the “gcPBM binding intensity (ln)” value was found to be 6.97. Take “ATAAATCGATAAAATATATGCTACATGAATAAATAA [XGTACX_negctrl_site604]”: the “gcPBM binding intensity (ln)” value turned out to be 6.91. Regarding “TACCAAAAAAAAAAAAATAAAAATAAAAAAAAAAAT [CACACA_negctrl_site1714]”, the “gcPBM binding intensity (ln)” value amounted to 6.83. In the case of “AAAATAAAAATAAAAGCACACATAAATATATATATA [CACACA_site8409]”, the “gcPBM binding intensity (ln)” value was determined as 8.73. The value for “CTTTATTATAAGATTACACACATGTCTTATAATTTA [CACACA_site5715]” was 6.81. Take “TAAAAGTTTTTATACATACACACCTATAAATTAAGT [CACACA_site2446]”: the “gcPBM binding intensity (ln)” value was found to be 7.21.

“TAACTATTATAAAAATGTACAAATGAAAATATTTTT [XGTACX_site1438]”: the “gcPBM binding intensity (ln)” value was 6.95. Regarding “TAATTAAATACATTAACACACACACTAATATATACA [CACACA_site8938]”, the “gcPBM binding intensity (ln)” value is 7. The value for “TTCCTGTTAATTACAACACACAATTTTTATTTTATG [CACACA_site779]” was 7.16. Take “AAGGCATGACTATCTGCACACATAAAAATAAGAAAT [CACACA_site8180]”: the “gcPBM binding intensity (ln)” value stood at 7.23. For the sequence “AATTTTTTTTTTTTGTGTCCTCATAATTCTTCATTC [XGTACX_site5042]”, the “gcPBM binding intensity (ln)” value was 7.03. As for “TAAACATAATAATATACACACATATATTGATATATA [CACACA_site2144]”, the “gcPBM binding intensity (ln)” value is 6.83. As for “TAAAAAAAAATATAATGTACGTATAAATATATATTA [XGTACX_site5085]”, the “gcPBM binding intensity (ln)” value stood at 6.98.

As for “ATTTTTTTGGTAATTTGTACATAATATATACATAAT [XGTACX_site3742]”, the “gcPBM binding intensity (ln)” value is 7.21.

As for “AAAATTAAAACCTACACACACATTTAAAAAAAAAAA [CACACA_site3068]”, the “gcPBM binding intensity (ln)” value stood at 6.8. For “TATATTTATTTAAAAACATGCATTTTTTTTTTCCGT [TGCATGCA_site44]”, the “gcPBM binding intensity (ln)” value was 6.76. The same measure for “TTTTTTTTTTTTACATGTACTTATTTTAAATATAAA [XGTACX_site805]”: 7.12. On to “TATATTATAGGTTGTGTACACATATTATATAGTACT [CACACA_site4583]”, for which the “gcPBM binding intensity (ln)” value is 7.16. Take “ATATATTTATAGACTTGTACATATATATACGATATA [XGTACX_site8890]”: the “gcPBM binding intensity (ln)” value is 7. Regarding “CATCTGGTATCTAATAGTACATATATATAATATCTT [XGTACX_site2774]”, the “gcPBM binding intensity (ln)” value amounted to 6.96. For the sequence “AACAAAAGAAAAAAATATATATATTCGTCCTATTTT [CACACA_negctrl_site444]”, the “gcPBM binding intensity (ln)” value stood at 7.02. For “TATATATGCATTAAAGTGTTTTTTTTTTTTTTTTTT [CACACA_negctrl_site1353]”, the “gcPBM binding intensity (ln)” value is 7.72. In the case of “ATGTGTATATGTTAATGTACAAATTTTGAAAATGCC [XGTACX_site2685]”, the “gcPBM binding intensity (ln)” value was 7.46. Turning to “TTAAAAAATATATACGTTGATATAATACAACTTGAC [CACACA_negctrl_site1551]”, the “gcPBM binding intensity (ln)” value is 6.92. With “TGTATAACCATAAATTGTACAGAAAAAAGTATAAAA [XGTACX_site1493]”, the “gcPBM binding intensity (ln)” value worked out at 6.95.
